Results reported in paper PMC7819943, “Rice protein-binding microarrays: a tool to detect cis-acting elements near promoter regions in rice”.
The other results are listed elsewhere or left out.

Molecular target: T1, OsWOX13 (Oryza sativa, UniProt Q5QMM3 1-267)
T1 sequence: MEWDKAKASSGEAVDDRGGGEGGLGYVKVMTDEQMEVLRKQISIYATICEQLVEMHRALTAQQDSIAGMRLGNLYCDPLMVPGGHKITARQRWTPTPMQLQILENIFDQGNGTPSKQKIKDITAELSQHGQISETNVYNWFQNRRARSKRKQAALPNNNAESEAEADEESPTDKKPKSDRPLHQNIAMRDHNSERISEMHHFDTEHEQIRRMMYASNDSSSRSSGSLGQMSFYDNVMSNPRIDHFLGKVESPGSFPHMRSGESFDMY
Assay: protein-binding microarray (RPBM); PBS, 2% BSA, 51.3 ng/ul salmon testes DNA, 50 uM zinc acetate, 200 nM TF, 25 C, 1 h; high values mean tight binding
Conditions: protein: recombinant; tags: N-terminal polyhistidine and DsRed monomer fusion (pET32a); label: CyDye5-dUTP incorporated in the synthesized complementary strand; 3' TTTTT single-stranded linker to array surface; dsDNA, one strand shown
In short: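 The binding signal for each feature is its fluorescence intensity in arbitrary units. An Axon 4000B scanner was used to read a custom Agilent array that had been made double-stranded with Cy5-dUTP primer extension, blocked with 2% BSA, incubated at 25 °C for 1 h with 200 nM protein in PBS, 2% BSA, salmon testes DNA and 50 µM zinc acetate, and washed. The protein was an N-terminal polyhistidine–DsRed transcription factor fusion from E. coli BL21-CodonPlus, purified on Ni–NTA.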

Point of comparison: “GTATAATCTAGCCATTAATTACACCATTAGTTACGGATAACGGAGTCACCTAGTGCAG”, binding signal 9490 fluorescence intensity (a.u.). Against it:
- AATTATAATATAATTGATCGATAACTAAATTCGAAAAGTCCGGAGTCACCTAGTGCAG — higher, 21400 fluorescence intensity (a.u.)
- ACAGGTGCATGATTAATATTTGCATCATATTTCTGCGGGACGGAGTCACCTAGTGCAG — lower, 4640 fluorescence intensity (a.u.)
- TCTATAAATTGGCCTAGTACCTGGAAAGTGAAATCTGCCACGGAGTCACCTAGTGCAG — lower, 7920 fluorescence intensity (a.u.)
- CGTGCTTCATTGATTTCTGCCATCAGGAGATTATGTTTCCCGGAGTCACCTAGTGCAG — lower, 5230 fluorescence intensity (a.u.)
- TCGTCGTACACACTTGATTAATTAATGGCGTGGAGGAACACGGAGTCACCTAGTGCAG — higher, 11600 fluorescence intensity (a.u.)
- ATAAACTAAATTCTATTATCTAATAACCGTTTTGATCTAACGGAGTCACCTAGTGCAG — lower, 5300 fluorescence intensity (a.u.)
- CTAAAGGGTTAATTTATTAACACTATTAACACTTTACTTACGGAGTCACCTAGTGCAG — lower, 4840 fluorescence intensity (a.u.)
- TTTCTGTTTCTCAATAATTGAAGCGAATCTGCAAAATTGGCGGAGTCACCTAGTGCAG — higher, 10400 fluorescence intensity (a.u.)
- TTAAAATTGATTTCTCTATCCATTCATTCCCATATCCGATCGGAGTCACCTAGTGCAG — higher, 38300 fluorescence intensity (a.u.)
- CAGCAATTTAGATTTATCAATCTACGTACGTACAATTTTACGGAGTCACCTAGTGCAG — higher, 13500 fluorescence intensity (a.u.)
- CGGGAGGGGAGGGGAATGGATGTGGGGAGGAGAGAGACTGCGGAGTCACCTAGTGCAG — lower, 3440 fluorescence intensity (a.u.)
- ATGGACTAATTATGCTCAAAAGATTCGTCTCACGATTTACCGGAGTCACCTAGTGCAG — higher, 16800 fluorescence intensity (a.u.)
- GGTAATTTGTCCGGTATTGAAAGTTTAGGGTGAGCAATGTCGGAGTCACCTAGTGCAG — higher, 22900 fluorescence intensity (a.u.)
- GTTTAAATTAGTGAAAGATGGAAGCGATGAGAGTTGTTAGCGGAGTCACCTAGTGCAG — higher, 11900 fluorescence intensity (a.u.)
- ATATAACAATAATAAAATTAAAATAAACTTCACCCGTTGTCGGAGTCACCTAGTGCAG — lower, 3430 fluorescence intensity (a.u.)
- GAGGATTAATTCCTTGGTCTTGATGTCATTTGCTTAGAGGCGGAGTCACCTAGTGCAG — lower, 5620 fluorescence intensity (a.u.)
- TAAATCAACAAGGCATAATTTGAATATTTAATCCTTGTGCCGGAGTCACCTAGTGCAG — lower, 4620 fluorescence intensity (a.u.)
- TGAATTTGATTTCTCTATAATGACTGGCTCTGATACCACACGGAGTCACCTAGTGCAG — higher, 10500 fluorescence intensity (a.u.)
- GCTACGTGATTATCTAAGAACTATCGGTTGATCTAATCATCGGAGTCACCTAGTGCAG — higher, 10300 fluorescence intensity (a.u.)
- CTTAACGACACCTGATTAGCAGCTCCAGTACACTAATTAACGGAGTCACCTAGTGCAG — higher, 20300 fluorescence intensity (a.u.)
- TATATATATATATATATATATATATATATATATTAATGGTCGGAGTCACCTAGTGCAG — higher, 10600 fluorescence intensity (a.u.)
- TTGAGTGTAACTTTGTAATAAATTGGAAAGGCTGGGATATCGGAGTCACCTAGTGCAG — lower, 4090 fluorescence intensity (a.u.)
